In all, about 33,000 sequences were measured (“E-score (-0.5 to 0.5)”: median about -0.053, highest 2% from about 0.37 on). This is one part of the list.
The sequences below were run against Hap1 (UniProt P0CE41) (assay: PBM E-score (8-mer binding enrichment) (E-score (-0.5 to 0.5)); higher = stronger / more preferred TF binding; most listed sequences are background and not binding sites). Conditions: protein concentration: 200 nM; construct: GST-DNA-binding domain.
Sequence of UniProt P0CE41 (P0CE41 whole entry, the tested form may be a part): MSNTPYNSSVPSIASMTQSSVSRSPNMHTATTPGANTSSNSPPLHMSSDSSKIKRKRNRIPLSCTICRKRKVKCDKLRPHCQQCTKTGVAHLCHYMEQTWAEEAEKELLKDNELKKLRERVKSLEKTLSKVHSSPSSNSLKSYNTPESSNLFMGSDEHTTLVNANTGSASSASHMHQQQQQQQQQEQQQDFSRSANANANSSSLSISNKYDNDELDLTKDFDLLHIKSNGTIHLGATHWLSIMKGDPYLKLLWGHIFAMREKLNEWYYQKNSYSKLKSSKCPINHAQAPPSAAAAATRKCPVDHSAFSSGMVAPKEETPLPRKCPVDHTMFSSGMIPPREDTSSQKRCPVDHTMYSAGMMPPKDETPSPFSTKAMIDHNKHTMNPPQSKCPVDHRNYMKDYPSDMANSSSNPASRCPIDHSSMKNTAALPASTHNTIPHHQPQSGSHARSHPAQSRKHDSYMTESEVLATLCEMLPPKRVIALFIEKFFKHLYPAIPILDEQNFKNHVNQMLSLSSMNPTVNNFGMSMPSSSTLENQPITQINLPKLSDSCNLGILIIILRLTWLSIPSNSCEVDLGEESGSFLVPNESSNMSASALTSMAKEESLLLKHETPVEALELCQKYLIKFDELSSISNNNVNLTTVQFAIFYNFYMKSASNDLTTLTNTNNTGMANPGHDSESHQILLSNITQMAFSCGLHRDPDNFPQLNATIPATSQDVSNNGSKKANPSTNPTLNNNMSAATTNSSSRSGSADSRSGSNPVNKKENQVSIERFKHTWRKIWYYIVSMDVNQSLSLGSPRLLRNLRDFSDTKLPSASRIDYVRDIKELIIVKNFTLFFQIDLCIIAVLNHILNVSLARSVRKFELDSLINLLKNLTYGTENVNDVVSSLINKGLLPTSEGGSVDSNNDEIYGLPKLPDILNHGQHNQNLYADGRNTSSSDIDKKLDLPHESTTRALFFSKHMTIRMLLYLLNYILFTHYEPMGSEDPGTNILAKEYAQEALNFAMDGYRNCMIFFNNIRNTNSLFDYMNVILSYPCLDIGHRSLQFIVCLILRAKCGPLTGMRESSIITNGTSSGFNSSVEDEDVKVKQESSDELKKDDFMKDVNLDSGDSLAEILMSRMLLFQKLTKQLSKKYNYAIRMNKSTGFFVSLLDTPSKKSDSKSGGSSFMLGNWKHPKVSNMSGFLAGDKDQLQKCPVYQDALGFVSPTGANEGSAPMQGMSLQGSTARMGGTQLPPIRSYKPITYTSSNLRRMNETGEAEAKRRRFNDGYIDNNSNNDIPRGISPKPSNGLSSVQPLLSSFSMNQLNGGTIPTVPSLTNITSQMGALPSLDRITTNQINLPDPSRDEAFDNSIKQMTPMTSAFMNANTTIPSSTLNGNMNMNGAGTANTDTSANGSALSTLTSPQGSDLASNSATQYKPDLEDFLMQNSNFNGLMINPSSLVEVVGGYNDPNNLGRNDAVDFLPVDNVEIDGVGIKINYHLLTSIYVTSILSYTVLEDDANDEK
Method in brief: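 The E-score, a modified Wilcoxon-Mann-Whitney statistic, was computed by the Universal PBM Analysis Suite for every ungapped eight-base word pooled with its reverse complement. Scans behind it were normalised with masliner after bound GST-tagged yeast transcription factors were detected with fluorescent anti-GST. The proteins, at about 100-200 nM, had been applied to universal all-10-mer Agilent arrays made double-stranded by primer extension.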
For ACAGTGTG, the “PBM E-score” value was -0.29.
With AGCGTGTA the “PBM E-score” value was -0.0986.
In the case of CCAGCAGA, the “PBM E-score” value is reported as -0.196.
With CTGCAAGC the “PBM E-score” value was -0.0709.
With CTGATCAA the “PBM E-score” value was -0.0332.
With CATCGGAG the “PBM E-score” value was 0.292.
In the case of CGCTGACG, the “PBM E-score” value is reported as -0.0759.
For TATGTGCA, the “PBM E-score” value was -0.184.
In the case of TATAAACA, the “PBM E-score” value is reported as -0.132.
For GTCTGCCA, the “PBM E-score” value was -0.155.
ACGAAACA was tested, and the “PBM E-score” value was -0.101.
In the case of AAATTAAA, the “PBM E-score” value is reported as 0.0667.
With ACTGGCCA the “PBM E-score” value was -0.236.
In the case of GTCTCCGA, the “PBM E-score” value is reported as 0.332.
In the case of AATCTGCC, the “PBM E-score” value is reported as 0.173.
In the case of GCATCAGA, the “PBM E-score” value is reported as -0.122.
For GTACCCTA, the “PBM E-score” value was -0.197.
For AACGTCTT, the “PBM E-score” value was -0.223.
In the case of GTCACAAA, the “PBM E-score” value is reported as -0.105.
In the case of AATTCTCT, the “PBM E-score” value is reported as -0.163.
In the case of CCCCGGAG, the “PBM E-score” value is reported as 0.393.
With CAGTTTGA the “PBM E-score” value was -0.101.
With ACACCTGT the “PBM E-score” value was -0.114.
GCCGCTCC was tested, and the “PBM E-score” value was 0.18.
For AAGGCGCT, the “PBM E-score” value was -0.0886.
CGCTGCAA was tested, and the “PBM E-score” value was -0.194.
In the case of CCGTTCTC, the “PBM E-score” value is reported as 0.0528.
AAATAGGA was tested, and the “PBM E-score” value was -0.021.
AGAGGGTA was tested, and the “PBM E-score” value was -0.233.
For AACTGCTG, the “PBM E-score” value was -0.211.
With CGCAGCCG the “PBM E-score” value was 0.0488.
In the case of GATAATTA, the “PBM E-score” value is reported as 0.21.
With CACTGACG the “PBM E-score” value was -0.147.
For CGCTCAAA, the “PBM E-score” value was -0.0153.
In the case of TAAGCGGA, the “PBM E-score” value is reported as 0.115.
For CGTTAGCC, the “PBM E-score” value was 0.0859.
For CCCAACCC, the “PBM E-score” value was -0.112.
In the case of CAGAACTA, the “PBM E-score” value is reported as -0.105.
For ACGCCACT, the “PBM E-score” value was -0.102.
With AGCTACCG the “PBM E-score” value was 0.065.
For AGTGTACG, the “PBM E-score” value was -0.0714.
For ATCCAATA, the “PBM E-score” value was -0.0322.
For CCGAGCCC, the “PBM E-score” value was 0.32.
For CGCCGGTC, the “PBM E-score” value was 0.295.
For ATAGTTAA, the “PBM E-score” value was 0.0382.
For GATTGTGA, the “PBM E-score” value was -0.00642.
With GACAGCTC the “PBM E-score” value was 0.131.
With GAAAGGAC the “PBM E-score” value was 0.194.
In the case of GTTGAGCA, the “PBM E-score” value is reported as -0.113.
For CGAAGCGC, the “PBM E-score” value was 0.203.
With TACTCTCA the “PBM E-score” value was -0.175.
GACAGGCC was tested, and the “PBM E-score” value was 0.0094.
GCGGCAGA was tested, and the “PBM E-score” value was 0.0262.
In the case of CGAAAGGC, the “PBM E-score” value is reported as 0.115.
With AAAATTGA the “PBM E-score” value was -0.0494.
In the case of AGTTTGCC, the “PBM E-score” value is reported as 0.0853.
For CCCTACCA, the “PBM E-score” value was -0.0985.
For TGGTCTAA, the “PBM E-score” value was -0.138.
CTACTGTA was tested, and the “PBM E-score” value was -0.138.
In the case of ATCGCGAC, the “PBM E-score” value is reported as 0.00288.
With AGTTCGCA the “PBM E-score” value was 0.0614.
AACCGCAT was tested, and the “PBM E-score” value was 0.0775.
With CCCAACGG the “PBM E-score” value was 0.123.
With ATCTAACC the “PBM E-score” value was 0.064.
In the case of AGAGGACA, the “PBM E-score” value is reported as -0.209.
In the case of CGAAGGCG, the “PBM E-score” value is reported as 0.158.
In the case of GTGTCATA, the “PBM E-score” value is reported as 0.00842.
With AATTGGCT the “PBM E-score” value was -0.0721.
In the case of CGTTTAAC, the “PBM E-score” value is reported as 0.046.
ACTAAACT was tested, and the “PBM E-score” value was -0.135.
In the case of CGAGCTAG, the “PBM E-score” value is reported as 0.0589.
In the case of ATGACAAA, the “PBM E-score” value is reported as -0.265.
In the case of CCTGAGAG, the “PBM E-score” value is reported as -0.155.
In the case of AAGCCACC, the “PBM E-score” value is reported as -0.158.
With ACCCGTTC the “PBM E-score” value was 0.196.
In the case of CCCCCAAA, the “PBM E-score” value is reported as -0.373.
TACCGCAA was tested, and the “PBM E-score” value was 0.08.
With CCTCTGAG the “PBM E-score” value was -0.12.
With ACACGTTG the “PBM E-score” value was -0.251.
With ATGCCCCG the “PBM E-score” value was 0.282.
AGAAACGA was tested, and the “PBM E-score” value was -0.0519.
In the case of ACATCCCC, the “PBM E-score” value is reported as 0.247.
In the case of GAGATCGC, the “PBM E-score” value is reported as 0.0756.
ACGGTGAG was tested, and the “PBM E-score” value was 0.0357.
For CATCCTGA, the “PBM E-score” value was -0.0998.
For CCATGGTA, the “PBM E-score” value was -0.0739.
For AATGTACC, the “PBM E-score” value was -0.211.
In the case of TGAACTAA, the “PBM E-score” value is reported as -0.137.
In the case of GGATAACC, the “PBM E-score” value is reported as 0.149.
For CTCGAGAG, the “PBM E-score” value was -0.191.
For AAGTTATC, the “PBM E-score” value was 0.0681.
In the case of CGTTTCCC, the “PBM E-score” value is reported as 0.124.
In the case of CCTACTCA, the “PBM E-score” value is reported as -0.105.
For GTAGGAGA, the “PBM E-score” value was -0.116.
With AAAGACAG the “PBM E-score” value was -0.0463.
For GGCATAAA, the “PBM E-score” value was 0.102.
With CCCAGTAG the “PBM E-score” value was -0.00837.
ACAGTGAA was tested, and the “PBM E-score” value was -0.139.
With GACCTGAC the “PBM E-score” value was -0.205.
In the case of AGAGGGCG, the “PBM E-score” value is reported as 0.0396.
For AGCCCCTA, the “PBM E-score” value was -0.145.
In the case of GAGGCCCA, the “PBM E-score” value is reported as -0.0403.
For AAGCGGAG, the “PBM E-score” value was -0.0297.
CTCCGTAA was tested, and the “PBM E-score” value was 0.296.
In the case of CGCGACAG, the “PBM E-score” value is reported as 0.031.
CGCACAGA was tested, and the “PBM E-score” value was -0.0892.
CCCATCTC was tested, and the “PBM E-score” value was -0.111.
With AAGATCTT the “PBM E-score” value was -0.114.
With CTTTTTAA the “PBM E-score” value was -0.129.
CGGCGTCA was tested, and the “PBM E-score” value was 0.168.
For CTCTGCAG, the “PBM E-score” value was -0.247.
In the case of CCCTTGAC, the “PBM E-score” value is reported as -0.205.
For CAACTATG, the “PBM E-score” value was -0.168.
In the case of CAGGACTA, the “PBM E-score” value is reported as -0.0953.
With CGATTTCA the “PBM E-score” value was -0.0807.
For CGTTTCCA, the “PBM E-score” value was -0.121.
In the case of CTCGTTTA, the “PBM E-score” value is reported as -0.0689.
With ACTATCAA the “PBM E-score” value was 0.0295.
CCAGCCGA was tested, and the “PBM E-score” value was 0.113.
For CGGAACTC, the “PBM E-score” value was 0.309.
For ACAAGCGG, the “PBM E-score” value was 0.157.
In the case of AATAGACC, the “PBM E-score” value is reported as -0.0431.
With GATGTCAC the “PBM E-score” value was -0.076.
ACCGTAAT was tested, and the “PBM E-score” value was 0.077.
ATGAGAAC was tested, and the “PBM E-score” value was -0.172.
ATCATGAC was tested, and the “PBM E-score” value was -0.233.
With CATGCTTA the “PBM E-score” value was -0.152.
In the case of TCTAATCA, the “PBM E-score” value is reported as 0.0846.
In the case of GGATTTTA, the “PBM E-score” value is reported as 0.323.
CTACGTAG was tested, and the “PBM E-score” value was -0.169.
With AAGCGTCT the “PBM E-score” value was -0.175.
In the case of AAATCCTG, the “PBM E-score” value is reported as -0.118.
With CACCGTAC the “PBM E-score” value was -0.0117.
In the case of CCTAAAGA, the “PBM E-score” value is reported as -0.141.
GTAATCGA was tested, and the “PBM E-score” value was -0.0107.
With AGTGGCTA the “PBM E-score” value was -0.223.
In the case of ACGAACAC, the “PBM E-score” value is reported as -0.0365.
TGGAAACA was tested, and the “PBM E-score” value was -0.0875.
In the case of GAGATTCA, the “PBM E-score” value is reported as -0.0135.
In the case of AGGCCTTA, the “PBM E-score” value is reported as -0.25.
TATTATCA was tested, and the “PBM E-score” value was -0.0828.
For CAATGACG, the “PBM E-score” value was -0.13.
In the case of ATGTAAGC, the “PBM E-score” value is reported as -0.0513.
With GCCTATCA the “PBM E-score” value was -0.068.
For ATGTGATC, the “PBM E-score” value was -0.0651.
For CGTATAAA, the “PBM E-score” value was 0.153.
For GGTCGCAA, the “PBM E-score” value was 0.117.
In the case of ATCACTTG, the “PBM E-score” value is reported as -0.229.
GCGGGGGA was tested, and the “PBM E-score” value was 0.162.
With CCATCACC the “PBM E-score” value was -0.0491.
In the case of ATATAGGA, the “PBM E-score” value is reported as -0.0527.
With CAGCGTAC the “PBM E-score” value was 0.0764.
CTCCTTTC was tested, and the “PBM E-score” value was -0.026.
For AAGCTTTA, the “PBM E-score” value was -0.0463.
In the case of GACCCAAC, the “PBM E-score” value is reported as -0.0485.
For CCAAGGCA, the “PBM E-score” value was -0.0858.
With ACCGTGTC the “PBM E-score” value was 0.118.
ACACTTCC was tested, and the “PBM E-score” value was 0.0685.
AATGTCGC was tested, and the “PBM E-score” value was -0.0228.
With GGGTCGAC the “PBM E-score” value was -0.00638.
In the case of CTCCGGCA, the “PBM E-score” value is reported as 0.371.
In the case of TCAAATAA, the “PBM E-score” value is reported as 0.0152.
ATTTCTCA was tested, and the “PBM E-score” value was -0.121.
For ATGGGTTC, the “PBM E-score” value was -0.104.
With AGGGTATA the “PBM E-score” value was 0.254.
For ACTGTAGA, the “PBM E-score” value was -0.176.
In the case of CGGGGTAC, the “PBM E-score” value is reported as 0.183.
For CAGGTCGC, the “PBM E-score” value was -0.16.
ACCTCGGG was tested, and the “PBM E-score” value was 0.26.
In the case of GAGGGTAA, the “PBM E-score” value is reported as 0.0407.
In the case of ACTCAATG, the “PBM E-score” value is reported as 0.0245.
In the case of ACGATTCT, the “PBM E-score” value is reported as 0.0345.

Reference: the supplement of paper PMC3334620
